Here are results for one molecule from article PMC2394266, “Downregulation of urokinase plasminogen activator receptor expression inhibits Erk signalling with concomitant suppression of invasiveness due to loss of uPAR–β1 integrin complex in colon cancer cells” (British Journal of Cancer, 2003).

The experiment has as its target β1 integrin (human (endogenous in HCT116), UniProt P05556). Kind of experiment: cell-based or functional assay.

Sequence of β1 integrin (P05556 21-798): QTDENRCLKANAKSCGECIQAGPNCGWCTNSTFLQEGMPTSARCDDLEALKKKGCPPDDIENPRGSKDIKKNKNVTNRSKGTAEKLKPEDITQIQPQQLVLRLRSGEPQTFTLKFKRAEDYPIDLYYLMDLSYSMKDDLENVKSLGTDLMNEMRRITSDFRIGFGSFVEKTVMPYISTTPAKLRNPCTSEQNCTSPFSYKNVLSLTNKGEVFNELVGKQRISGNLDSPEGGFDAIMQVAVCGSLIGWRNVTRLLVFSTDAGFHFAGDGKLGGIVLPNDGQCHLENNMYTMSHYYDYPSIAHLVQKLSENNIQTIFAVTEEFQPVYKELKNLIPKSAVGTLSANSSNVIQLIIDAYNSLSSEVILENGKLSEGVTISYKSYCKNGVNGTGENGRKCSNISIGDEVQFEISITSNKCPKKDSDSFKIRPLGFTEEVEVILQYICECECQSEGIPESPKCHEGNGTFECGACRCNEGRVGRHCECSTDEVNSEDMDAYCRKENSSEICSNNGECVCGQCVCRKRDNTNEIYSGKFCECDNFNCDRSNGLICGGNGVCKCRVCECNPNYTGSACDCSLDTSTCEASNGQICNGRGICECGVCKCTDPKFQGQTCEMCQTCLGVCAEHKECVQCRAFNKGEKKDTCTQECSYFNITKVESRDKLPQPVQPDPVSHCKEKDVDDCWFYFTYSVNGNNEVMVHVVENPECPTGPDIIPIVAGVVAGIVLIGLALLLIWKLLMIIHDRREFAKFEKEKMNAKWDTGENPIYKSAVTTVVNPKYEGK

B1: urokinase plasminogen activator receptor (receptor)
chain: not shown
For B1, the “suppression of pro-MMP-2 secretion (gelatin zymography, densitometry) by mock HCT116 cells with P25 peptide (100 μM)” value came to 7 fold; the “suppression of pro-MMP-9 secretion (gelatin zymography, densitometry) by mock HCT116 cells with P25 peptide (100 μM)” value amounted to 3 fold; the “uPA (20 nM, 30 min)-induced Erk activation (phospho-Erk1/2 Western blot, densitometry) in acid-stripped mock HCT116 cells in the presence of P25 peptide (100 μM), which disrupts the complex” value came to 1.6 fold; the “uPA (20 nM, 30 min)-induced Erk activation (phospho-Erk1/2 Western blot, densitometry) in acid-stripped mock HCT116 cells, control and Scp-treated (100 μM)” value worked out at 2.5 fold.
